Hit rate of the full screen: of about 310,000 compounds, about 14,000 (4.5%) showed an effect of 50% or more. The effect is printed as a negative number. The list shows a part of the results.
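Note: peak tail current of the secondary pulse compared with the same well before compound.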

The target of the assay is human ether-à-go-go-related gene (hERG) potassium channel (human, UniProt Q12809). Kind of assay: primary screen, population patch clamp on CHO cells stably expressing hERG.
Sequence of human ether-à-go-go-related gene (hERG) potassium channel (Q12809 whole entry, looked up): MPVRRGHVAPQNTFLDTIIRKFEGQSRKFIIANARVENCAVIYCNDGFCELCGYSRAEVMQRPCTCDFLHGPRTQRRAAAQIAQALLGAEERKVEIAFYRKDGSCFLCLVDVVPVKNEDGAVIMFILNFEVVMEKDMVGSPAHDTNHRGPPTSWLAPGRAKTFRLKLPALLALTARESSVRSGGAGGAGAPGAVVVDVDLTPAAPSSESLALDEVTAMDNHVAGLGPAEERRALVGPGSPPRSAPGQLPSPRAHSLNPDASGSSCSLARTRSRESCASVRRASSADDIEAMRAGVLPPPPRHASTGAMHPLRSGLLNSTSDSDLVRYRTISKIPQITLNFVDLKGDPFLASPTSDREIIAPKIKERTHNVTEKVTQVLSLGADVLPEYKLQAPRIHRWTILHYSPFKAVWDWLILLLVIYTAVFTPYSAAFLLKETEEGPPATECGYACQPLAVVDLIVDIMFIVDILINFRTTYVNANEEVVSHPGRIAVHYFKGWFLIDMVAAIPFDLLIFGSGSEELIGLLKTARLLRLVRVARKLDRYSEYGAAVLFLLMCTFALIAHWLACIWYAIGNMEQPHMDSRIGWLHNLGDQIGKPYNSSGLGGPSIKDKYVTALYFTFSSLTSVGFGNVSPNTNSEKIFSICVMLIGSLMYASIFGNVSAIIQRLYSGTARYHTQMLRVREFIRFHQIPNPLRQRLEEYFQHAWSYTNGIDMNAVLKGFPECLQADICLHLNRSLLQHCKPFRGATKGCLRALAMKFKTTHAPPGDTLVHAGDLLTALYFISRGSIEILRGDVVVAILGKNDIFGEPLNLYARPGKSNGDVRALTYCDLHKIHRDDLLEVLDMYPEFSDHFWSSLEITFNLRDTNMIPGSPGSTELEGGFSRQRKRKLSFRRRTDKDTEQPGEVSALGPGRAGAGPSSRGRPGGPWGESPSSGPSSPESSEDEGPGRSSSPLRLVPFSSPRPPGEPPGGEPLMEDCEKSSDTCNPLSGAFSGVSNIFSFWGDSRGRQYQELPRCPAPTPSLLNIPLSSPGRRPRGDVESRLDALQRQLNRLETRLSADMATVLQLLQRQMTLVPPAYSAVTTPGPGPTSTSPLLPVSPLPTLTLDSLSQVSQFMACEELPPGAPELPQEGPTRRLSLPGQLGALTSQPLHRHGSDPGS
For `CCCCN1CNC(=S)N(c2ccc(C(=O)OCC)cc2)C1`, the “hERG current change (%, negative = inhibition) at 10uM” value is given as 2.62%.
In the case of `CCOCCCNC(=O)C(NC(=O)c1ccc(NC(C)=O)cc1)c1ccc(OC)cc1` (centres unmarked) it was -2.69%; in that of `COc1cc(/C=N/n2c(C)n[nH]c2=S)ccc1OCc1ccc(F)cc1`, 6.9%; in that of `O=C(NCC(c1ccc(F)cc1)N1CCOCC1)c1c(F)cccc1F` (centres unmarked), 2.46%.
To `CNC(=O)c1ccc(-c2sc3nc(N4CCOCC4)c4c(c3c2N)CC(C)(C)OC4)o1` belongs 0.721%.
To `Nc1cc(N)cc(-c2nc3ccccc3o2)c1` belongs 5.89%.
For the molecule `Cc1cc(/C=C(\C#N)C(=O)N2CCCCC2)cc(C)c1O`, the “hERG current change (%, negative = inhibition) at 10uM” value is given as -9.07%.
In the case of `O=C1CC(=O)C(n2cncn2)C(c2ccc(Cl)cc2Cl)C1` (centres unmarked) it was 7.83%.
In the case of `O=C(Cn1c(=O)c2c3c(sc2n(Cc2ccccc2)c1=O)CCCC3)NCCO` it was 10.9%.
In the case of `CC(=O)Nc1ccc(NC(=O)CSc2nnc(-c3cccs3)n2N)cc1` it was 1.15%; in that of `CC1=C(C(=O)OC2CCC(C)CC2)C(c2ccc(O)c([N+](=O)[O-])c2)NC(=O)N1` (centres unmarked), -0.635%; in that of `Cc1cc(OCC(=O)NCc2ccccn2)c2c(C)c(Cc3ccccc3)c(=O)oc2c1`, -11.2%.
For `COCCCNC(=S)N/N=C/c1ccc2ccccc2c1`, the “hERG current change (%, negative = inhibition) at 10uM” value was determined as 19.1%.
Consider `CCOc1ccc(C(=O)NCC(=O)OCC(=O)Nc2ccccc2OCC)cc1`, for which the “hERG current change (%, negative = inhibition) at 10uM” value amounted to 0.502%.
Take `O=C(CSc1nnc(-c2cnccn2)n1Cc1ccco1)c1ccccc1`: the “hERG current change (%, negative = inhibition) at 10uM” value is listed as -16.3%.
With `COc1ccc(-c2nc(N)ncc2-c2csc(C)n2)c(O)c1`, the “hERG current change (%, negative = inhibition) at 10uM” value amounted to 7.75%.
For `CCOc1ccc(CNC(=O)C(C)n2ccc3cc(S(=O)(=O)N4CCCC4)ccc32)cc1` (centres unmarked), the “hERG current change (%, negative = inhibition) at 10uM” value was -4.02%.
Turning to `c1ccc2oc(-c3ccc4nc[nH]c4c3)nc2c1`, the “hERG current change (%, negative = inhibition) at 10uM” value stood at 8.28%.
As to `CC(C)(C)C(=O)Nc1ccc(C(=O)NNC(=O)Cc2ccccc2)cc1`, the “hERG current change (%, negative = inhibition) at 10uM” value amounted to 12.4%.
To `Cc1c2c(nc3c(C(=O)NC4CCCCC4C)cnn13)CCCC2` (centres unmarked) belongs -10.7%; to `CCc1ccc(NC(=O)C(=O)NCC2CCCN2S(=O)(=O)c2ccccc2)cc1` (centres unmarked), -26.3%; to `Cn1c2ccccc2c2nnc(SCC(N)=O)nc21`, -7.5%.
For the molecule `CC(=O)C1=C(C)NC(=O)NC1c1ccc2c(c1)OCO2` (centres unmarked), the “hERG current change (%, negative = inhibition) at 10uM” value is given as 12.9%.
To `CC1=NNC(=O)/C1=C\c1cn(-c2ccccc2)nc1-c1ccccc1` belongs 23.1%; to `COc1ccc2[nH]c(=O)c(C(c3nnnn3C3CCCC3)N(C)C3CCCCC3)cc2c1` (centres unmarked), -17.3%.
For the molecule `CCn1c(O)c(C(=O)CC2NCCc3ccccc32)c(=O)n(CC)c1=S` (centres unmarked), the “hERG current change (%, negative = inhibition) at 10uM” value is given as 4.97%.
For `O=C(/C=C/c1ccco1)Oc1cc(Br)cc(/C=N/NC(=O)c2ccccc2O)c1`, the “hERG current change (%, negative = inhibition) at 10uM” value is recorded as -0.563%.
In the case of `Cc1ccc(C)c(OCCC(=O)OCC(=O)NC2CC2)c1` it was 5.28%; in that of `CCOC(=O)C1(CCc2ccccc2)CCN(Cc2ccc(NC(C)=O)cc2)CC1`, -76.6%.
To `Cc1ccc2c(c1)NCCO2` belongs 4.46%; to `CCOC(=O)c1ccc(C(=O)OCC)nc1`, 21.1%.
Regarding `CC(=O)c1cccc(-n2nnnc2SCC(=O)Nc2ccccc2N2CCCCC2)c1`, the “hERG current change (%, negative = inhibition) at 10uM” value was determined as 7.52%.
To `Oc1c(Br)cc(/C=N/Nc2ccc(Cl)nn2)cc1Br` belongs -37.6%; to `CCOc1ccc2oc(-c3ccccc3)c(C(=O)N(C)C)c2c1`, 10.7%; to `CC12CN3CC(C)(CN(C1)C31CCOCC1)C2=O`, 11.4%.
Take `COc1cc(NC(=O)c2c(F)c(F)c(OC)c(F)c2F)ccc1NC(=O)c1cccs1`: the “hERG current change (%, negative = inhibition) at 10uM” value was determined as 11.2%.
On to `COc1cccc(C(=O)N/N=c2\oc3c(OC)cccc3cc2C(=O)NCc2ccccc2)c1`, for which the “hERG current change (%, negative = inhibition) at 10uM” value is reported as -8.28%.
Turning to `COc1ccc(/C=C2\SC(=S)N(CCC(=O)Nc3ccccn3)C2=O)cc1OC`, the “hERG current change (%, negative = inhibition) at 10uM” value is reported as 26.2%.
To `COc1ccccc1N1CCN(CCC(=O)Nc2ccc3c(c2)OCO3)CC1` belongs -26.7%; to `Cc1nc(N2CCN(c3ccccc3)CC2)[nH]c(=O)c1Cc1ccccc1`, -6.78%.
To `Cc1ccc(C(=O)CCNc2ccccc2)o1` belongs -1.25%.
In the case of `O=C1CCCN1CCC(=O)N1CCCC(Nc2ccc(F)cc2)C1` (centres unmarked), the “hERG current change (%, negative = inhibition) at 10uM” value is reported as -11.4%.
In the case of `O=c1[nH]c2cc(Cl)cc(Cl)c2[nH]c1=O` it was 9.1%.
In the case of `Cc1ccc(/C(O)=C2\C(=O)C(=O)N(C)C2c2ccc(Br)cc2)cc1` (centres unmarked) it was 13.3%.

For the origin of these results see article PMC4336329 (PLoS ONE, 2015).
